# Among all 230,000 compounds or so, about 1,500 (0.65%) were called active. This list was built around the results that the source calls inconclusive (neither active nor inactive); the mix of calls is not that of the screen. Calls follow the shape of the dose curve; as a rule, active = well fitted inhibition curve with a large enough effect; inconclusive = small, poorly fitted or top-dose-only effect; inactive = no such curve, though single readings can be large or run the other way. Where the call is inconclusive, the potency comes from a doubtful curve fit.
# Biological target: Lethal(3)malignant brain tumor-like protein 1 (Homo sapiens) (UniProt Q9Y468)
# Test: qHTS Assay for the Inhibitors of L3MBTL1; also: nearly all actives have a fitted effect of over 60% in size
# Settings: AlphaScreen L3MBTL1–H3K9me1 peptide binding; activity, negative = inhibition: at 57.1 µM (top of the series)
# How it was run: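 L3MBTL1 (50 nM) pre-complexed 30 min with biotinylated H3(1-15)K9me1 peptide (75 nM), then compounds added for 30 min at room temperature; AlphaScreen streptavidin donor/nickel chelate acceptor beads (10 ug/mL final) read after 30 min dark incubation.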
# % is scaled to controls: 0 for no effect and ±100 for the full control effect; potency is read from the fitted curve at half-maximal effect; tags tell the direction and shape of the fitted curve.
# UniProt Q9Y468, sequence (Q9Y468 whole entry, looked up): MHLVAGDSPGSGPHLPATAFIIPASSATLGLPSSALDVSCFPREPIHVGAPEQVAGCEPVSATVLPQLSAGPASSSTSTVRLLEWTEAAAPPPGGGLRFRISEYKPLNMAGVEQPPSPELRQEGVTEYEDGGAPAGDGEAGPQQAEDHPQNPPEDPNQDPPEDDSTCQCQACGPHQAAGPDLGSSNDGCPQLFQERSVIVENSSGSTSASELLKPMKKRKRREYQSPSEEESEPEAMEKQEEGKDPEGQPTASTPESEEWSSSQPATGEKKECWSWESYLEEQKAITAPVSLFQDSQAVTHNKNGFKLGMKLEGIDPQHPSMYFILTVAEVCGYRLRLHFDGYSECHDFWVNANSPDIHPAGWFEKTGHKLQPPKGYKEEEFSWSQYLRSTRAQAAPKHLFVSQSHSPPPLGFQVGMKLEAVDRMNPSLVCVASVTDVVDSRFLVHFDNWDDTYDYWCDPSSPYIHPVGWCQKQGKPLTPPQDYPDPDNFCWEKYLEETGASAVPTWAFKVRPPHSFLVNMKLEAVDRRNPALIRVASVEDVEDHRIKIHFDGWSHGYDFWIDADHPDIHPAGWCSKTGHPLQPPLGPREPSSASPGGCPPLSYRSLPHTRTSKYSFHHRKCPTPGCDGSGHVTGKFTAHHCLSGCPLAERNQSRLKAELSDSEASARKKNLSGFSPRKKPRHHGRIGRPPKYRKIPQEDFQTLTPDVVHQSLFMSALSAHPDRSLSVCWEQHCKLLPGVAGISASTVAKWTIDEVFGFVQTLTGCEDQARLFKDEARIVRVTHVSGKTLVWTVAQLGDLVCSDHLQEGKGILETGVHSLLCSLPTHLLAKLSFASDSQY
SMILES,Potency,"activity, negative = inhibition"
CC1CC(C)CN(C(=O)/C=C/c2ccc([N+](=O)[O-])s2)C1 (stereo not drawn),"inconclusive: 7.94 µM [inhibitor, full curve, poor fit]",–
Cc1ccc(NC(=O)NC(=O)CSc2n[nH]c(N)n2)c(C)c1,"inconclusive: 5.01 µM [inhibitor, full curve, poor fit]",–
COc1ccccc1OCC(=O)Nc1ccc(N2CCCCC2)cc1,"inconclusive: 39.8 µM [inhibitor, partial curve, poor fit]",–
CN1c2ccsc2/C(=N/Nc2ccc(F)cc2)CS1(=O)=O,–,inactive: -18.3%
O=C1/C(=C/C=C/c2ccco2)SC(=S)N1c1ccc(O)cc1,active: 4.47 µM,–
COc1cc(OC)cc(C(=O)NCC(=O)OCC(=O)Nc2ccc(C)c(S(=O)(=O)N3CCOCC3)c2)c1,–,inactive: -9.68%
CN(C)c1ccc(-c2nc3ccccn3c2/N=C/c2ccc(Br)cc2)cc1,"inconclusive: 39.8 µM [inhibitor, single point]",–
O=C1CCCC2=C1C1c3ccccc3C(=O)N1c1ccc(C(=O)c3ccccc3)cc1N2 (stereo not drawn),"inconclusive: 4.47 µM [inhibitor, full curve]",–
CCc1cc(-c2n[nH]c(C)c2-c2nc3ccccc3s2)c(O)cc1OCC(=O)NN,"inconclusive: 39.8 µM [inhibitor, single point]",–
CN(C)[C@@H]1C(=O)C(C(N)=O)=C(O)[C@@]2(O)C(=O)C3=C(O)c4c(O)ccc(Cl)c4[C@@H](O)[C@H]3C[C@@H]12,–,inconclusive: -97.4% [inhibitor]
S=C(c1ccc(-c2ccc(Cl)cc2)o1)N1CCCCC1,"inconclusive: 14.1 µM [inhibitor, partial curve]",–
COc1ccc(C(c2c(C)[nH]n(-c3ccccc3)c2=O)c2c(C)[nH]n(-c3ccccc3)c2=O)cc1OC,"inconclusive: 4.47 µM [inhibitor, partial curve]",–
COc1cc(C)c(S(=O)(=O)N2CCCC2)cc1C,"inconclusive: 2.82 µM [inhibitor, single point]",–
CC(C)c1ccc(CNc2ccc(N3CCOCC3)cc2)cc1,"inconclusive: 35.5 µM [inhibitor, single point]",–
Cn1c(-c2ccc(F)cc2)cnc1NCc1ccccc1,"inconclusive: 0.794 µM [inhibitor, single point]",–
CCOc1ccccc1N1CCN(Cc2ccc(OC)c(OC)c2OC)CC1,–,inactive: -8.4%
C=CCN=C1NN=C(c2cc(C)n(CC=C)c2C)CS1,–,inactive: 0.0848%
Nc1nccc(-c2cc(-c3ccc(Cl)cc3Cl)no2)n1,"inconclusive: 39.8 µM [inhibitor, single point]",–

# Source: PubChem BioAssay AID485360 (National Center for Advancing Translational Sciences (NCATS), 2010)
